Among the data in PubChem BioAssay AID1434 (Sanford-Burnham Center for Chemical Genomics, 2008) are inhibition values, retold here.

The inhibition is the change of the read-out against control, counted positive when it falls.

Some of the results follow. Shown are side measurements of this screen, not its main read-out; they come without a call. The list favours compounds with an active or inconclusive main result.

The experiment addresses Runt-related transcription factor 1 (Homo sapiens) + Core-binding factor subunit beta (Homo sapiens) (UniProt Q01196+Q13951). In words: inhibitors of RUNX1 Runt–CBFb-SMMHC binding, primary screen, biochemical, FRET, Cerulean-Runt, Venus-CBFb-SMMHC, uHTS (AID 1434).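 Further: 0% = DMSO wells and 100% = wells with excess untagged CBFb-SMMHC; inhibitors lower the FRET ratio by blocking Runt binding to CBFb-SMMHC.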 The conditions noted are these: Cerulean-Runt/Venus-CBFb-SMMHC FRET ratio 530/480, 1 h; retest duplicate average; at 20 µM; stronger effect = higher value.
Chain of UniProt Q01196 (Q01196 whole entry, looked up): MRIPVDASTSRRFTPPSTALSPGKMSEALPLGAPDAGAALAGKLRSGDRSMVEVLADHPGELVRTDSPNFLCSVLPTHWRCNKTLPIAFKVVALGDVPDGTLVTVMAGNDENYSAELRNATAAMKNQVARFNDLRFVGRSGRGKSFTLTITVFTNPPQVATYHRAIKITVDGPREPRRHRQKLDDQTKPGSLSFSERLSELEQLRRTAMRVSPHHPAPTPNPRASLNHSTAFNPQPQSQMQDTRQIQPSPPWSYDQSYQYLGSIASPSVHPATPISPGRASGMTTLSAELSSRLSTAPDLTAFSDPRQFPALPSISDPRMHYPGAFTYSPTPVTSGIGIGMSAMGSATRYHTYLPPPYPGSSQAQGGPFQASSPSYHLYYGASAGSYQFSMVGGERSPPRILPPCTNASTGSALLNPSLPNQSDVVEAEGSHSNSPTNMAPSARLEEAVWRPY
Chain of UniProt Q01196 (Q13951 whole entry, looked up): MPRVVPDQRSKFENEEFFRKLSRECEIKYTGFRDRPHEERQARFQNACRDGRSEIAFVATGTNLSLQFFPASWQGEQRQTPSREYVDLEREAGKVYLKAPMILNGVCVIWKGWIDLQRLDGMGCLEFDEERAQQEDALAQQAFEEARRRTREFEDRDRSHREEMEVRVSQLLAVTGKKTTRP
In the case of `Cc1ccc(-c2ccc(CCC(=O)O)n2NC(=O)c2cccs2)cc1`, the inhibition was determined as 66.2%. Next, `Cc1ccc(Cn2cccc(-c3nc4ccccc4s3)c2=O)cc1`: 107%; `CCn1c(CSc2nccn2C)nc2cc(C(=O)O)ccc21`: 55.1%. On to `CCOC(=O)c1cc2c(=O)n3ccccc3nc2n(C(C)C)c1=NC(=O)c1ccco1`, for which the inhibition is 70.6%.

In the case of `COc1cc(C(=O)NCCCNc2nc3cc(C)cc(C)c3cc2C#N)cc(OC)c1OC`, the inhibition stood at 86.3%. Turning to `CCCc1c2ccccc2nc2ccccc12`, the inhibition came out at 62.3%. Consider `N#CC(C(=O)NCc1ccccc1)c1nc2ccccc2nc1N1CCCC1` (centres undefined), for which the inhibition came out at 95.6%. Next, `COCCNC(=O)C(C#N)c1nc2ccccc2nc1N1CCCCCC1` (centres undefined): 102%; `CCc1cc[n+](-c2nc3ccccc3nc2[N-]S(=O)(=O)c2ccc(Br)s2)cc1`: 66.2%; `COc1ccc(C2C3=C(CC(C)(C)CC3=O)Nc3c2c(=O)[nH]c2nc(C)nn32)cc1` (centres undefined): 159%. With `O=C(Cc1nc2ccccc2s1)c1ccc(O)cc1O`, the inhibition worked out at 125%. As for `O=C(Cc1ccccc1)N/N=C/c1cc(Br)cc(Cl)c1O`, the inhibition amounted to 70.6%. Next, `Cc1ccc(S(=O)(=O)NC(C(=O)Oc2ccc3c(C)c(Cl)c(=O)oc3c2)c2ccccc2)cc1` (centres undefined): 71.5%; `Cc1ncc(CO)c(/C=N/NC(=O)c2ccc(Br)cc2)c1O`: 71.5%. For the compound `COc1ccc(-c2cc(-c3ccco3)[nH]c(=O)c2C#N)cc1`, the inhibition is 105%. The figure for `O=C(NC1CCCCCC1)c1ccc[nH]c1=S` is 60.5%.

`COc1ccc(C(=O)Nc2sc3c(c2C#N)CCN(C(C)=O)C3)cc1`: the inhibition was 91.7%. For `c1cc2c(cc1-c1csc(NNC3=NCCCCC3)n1)OCCO2`, the inhibition was determined as 56.9%.

In the case of `COc1ccc(-c2c(C#N)c(N)nc3c2CCC3)cc1`, the inhibition came out at 101%. The figure for `CC(=O)c1sc(Nc2nc3ccc(F)cc3s2)nc1C` is 75.9%; for `CC(=O)Oc1cc2oc(=O)c3c(c2cc1Cl)CCC3` it is 142%; for `Cc1cc(=O)oc2cc(OC(=O)c3nn(C(C)C)c(=O)c4ccccc34)ccc12` it is 85.5%.

On to `CC(C)S(=O)(=O)c1nsc2nc(=O)c(/C=C3\C=Nc4ccccc43)c(N)n12`, for which the inhibition is 107%. Next, `N=c1c(C(=O)NCc2ccc3c(c2)OCO3)cc2c(=O)n3ccccc3nc2n1Cc1cccnc1`: 182%; `O=C(O)CCc1ccc(-c2cccs2)n1CC1CCCO1` (centres undefined): 98.3%. The figure for `Cc1cc2c(c(=O)n1CCCn1ccnc1)C(c1ccco1)C(C#N)=C(N)O2` (centres undefined) is 118%; for `Cc1nc2ccc(S(=O)(=O)Nc3ccc(-c4nc5cccnc5s4)cc3)cc2s1` it is 136%; for `N#Cc1cc2c(=O)n3ccccc3nc2n(CCCN2CCOCC2)c1=O` it is 72.9%. Next, `Cc1cccc2cc(C#N)c(NCCNC(=O)NC3CCCCC3)nc12`: 102%. Take `CC(C)OC(=O)CSc1nnc2n1C(C)(C)Cc1ccccc1-2`: the inhibition turned out to be 187%. For the compound `Cc1cccc(-n2c(=O)c(C#N)cc3c(=O)n4ccccc4nc32)c1`, the inhibition came to 72.9%. The figure for `N#Cc1c(-c2cccs2)cc(-c2cccs2)[nH]c1=O` is 155%; for `CN(C)Cc1c(O)c(Cl)cc2c3c(c(=O)oc12)CCCC3` it is 85.7%; for `Cc1ccc2cc(C#N)c(N3CCCN(C(=O)C4CCCO4)CC3)nc2c1C` (centres undefined) it is 75.3%. The figure for `O=C(Cn1c2ccccc2c(=O)c2ccccc21)N/N=C/c1ccc(N2CCCC2)c([N+](=O)[O-])c1` is 125%; for `O=c1[nH]c2cc3c(cc2cc1CN(Cc1nnnn1CC1CCCO1)C1CCCCC1)OCO3` (centres undefined) it is 72%. Next, `N=c1c(S(=O)(=O)c2ccc(Cl)cc2)cc2c(=O)n3ccccc3nc2n1CCN1CCOCC1`: 81.4%.

On to `COc1cc(/C=C(/C#N)c2nc3ccccc3[nH]2)ccc1OCc1ccc(C(=O)O)o1`, for which the inhibition came to 54.8%. The figure for `COc1ccc(/C=C2\CCCc3c2nc2ccccc2c3C(=O)O)cc1OC` is 70.6%; for `CCn1cc(C2C(C(=O)Nc3ccc(Br)cn3)=C(C)NC3=C2C(=O)CCC3)c(C)n1` (centres undefined) it is 68%; for `CCCCc1cc(=O)oc2c(CN(CC)CC)c(O)c(Cl)cc12` it is 160%. The figure for `CC(C)CCN(CCC(C)C)CC(O)Cn1c2ccccc2c(=O)c2ccccc21` (centres undefined) is 165%; for `CCCCCCc1cc2cc(C(N)=O)c(=N)oc2cc1O` it is 72.9%; for `CCCn1nc(NC(=O)c2cccs2)c2cc3cc(OC)ccc3nc21` it is 104%. Next, `CN1CCc2c(sc3ncn4nc(-c5ccccc5O)nc4c23)C1`: 142%; `O=C(COc1ccccc1)NNc1c2ccccc2nc2ccccc12`: 92.4%.

As for `CCNc1sc(C(=O)c2cccs2)c(N)c1-c1nc2ccccc2s1`, the inhibition came out at 101%.

As to `Cc1ccc2cc(C#N)c(NCCNC(=O)C3CC3)nc2c1C`, the inhibition came to 110%. `O=S(=O)(Nc1ccc(-c2nc3cccnc3s2)cc1)c1cccs1`: the inhibition amounted to 170%.

With `COCCn1c(C)cc2c(c1=O)C(c1ccco1)C(C#N)=C(N)O2` (centres undefined), the inhibition is 173%. The figure for `Cc1ccc(S(=O)(=O)NNc2ccccc2)cc1` is 54.8%; for `COCCCNC(=O)c1c(N)n(-c2ccc(S(N)(=O)=O)cc2)c2nc3ccccc3nc12` it is 90.2%; for `CC(C)N1CC=C2C(C#N)=C(N)C(C#N)(C#N)C(c3ccccc3)C2C1` (centres undefined) it is 148%. `COC(=O)C1=C(C)NC2=C(C(=O)CC(C)(C)C2)C1c1ccccn1` (centres undefined): the inhibition is 103%. The figure for `Cc1cccc(N=c2oc3cc(O)ccc3cc2C(N)=O)c1` is 72.9%; for `N#Cc1c2c(c(NCc3ccco3)n3c1nc1ccccc13)CCC2` it is 74.9%; for `CN1CCc2c(sc(N)c2C(N)=O)C1` it is 160%. With `CC(=O)Nc1ccc2cc3ccc(NC(C)=O)cc3nc2c1`, the inhibition was found to be 3.2%. In the case of `CCCCn1c(-c2cccs2)nc2nc3ccccc3nc21`, the inhibition was determined as 109%. Next, `COc1cc(OC)c(OC)cc1/C=N/Nc1ncnc2c1[nH]c1ccccc12`: 54.8%; `COc1cccc(-n2c(SCc3cc(=O)oc4cc(O)c(O)cc34)nc3ccccc3c2=O)c1`: 91.2%; `CCOC(=O)c1c(N)n(CC(C)NC(=O)C2CC2)c2nc3ccccc3nc12` (centres undefined): 143%. The figure for `O=C1C=CC(=O)N1c1cccc(-c2ccccc2)c1` is 60.2%; for `C=CCN1C(=O)/C(=C2/Sc3ccccc3N2CCCS(=O)(=O)O)SC1=S` it is 115%.

Regarding `COCCn1c(N)c(C(=O)NCc2cccs2)c2nc3ccccc3nc21`, the inhibition is 103%. The figure for `Cc1cccc2cc(C#N)c(N3CCC(O)CC3)nc12` is 83.6%; for `c1ccc(C2CC(c3cccs3)=NN2c2ccccc2)cc1` (centres undefined) it is 80.6%. As to `COC(=O)C1=C(C)NC2=C(C(=O)C(C(=O)OC)C(c3ccc(OC)cc3)C2)C1c1ccccn1` (centres undefined), the inhibition was found to be 82%. Next, `CCOC(=O)Cc1csc(/N=C/c2c(O)n(-c3ccc(C)c(C)c3)c(=O)c3ccccc23)n1`: 72.4%. Regarding `CCN(CC)c1ccc(/C=N/NC(=O)c2c(Cl)cnn2C)c(O)c1`, the inhibition was determined as 136%. The figure for `COCCCn1c(CCC(=O)O)ccc1-c1cccs1` is 130%. The figure for `CCCCn1c(N)c(NCC)c(=O)[nH]c1=O` is 84.2%.

Regarding `CCn1cc(C2C(C(=O)Nc3cc(C)ccn3)=C(C)NC3=C2C(=O)CC(C)(C)C3)c(C)n1` (centres undefined), the inhibition came to 68.7%. For the compound `CN(C)CCCn1c(N)c(C#N)c2nc3ccccc3nc21`, the inhibition was determined as 70.6%. `CCN1CCS/C1=C/C=C/C1=[N+](CC)CCS1`: the inhibition was determined as 181%.

Turning to `COC(=O)C1=CNC=C(C(=O)OC)C1c1ccccc1Cl`, the inhibition was 148%. Next, `COc1ccc(OC)c2c1C(=O)C(Cl)=C(Cl)C2=O`: 65.2%; `COc1ccc2nc(N3CCC(C)CC3)c(C#N)cc2c1`: 113%. The figure for `Cc1ccc(S(=O)(=O)NC(C(=O)Oc2cc3oc(=O)cc(C)c3cc2Cl)C(C)C)cc1` (centres undefined) is 76.9%.

Consider `CC(=O)Oc1ccc2ccc(=O)oc2c1`, for which the inhibition amounted to 93.7%. The figure for `COc1cc(C2CC(c3cccnc3)=NN2c2ccc(F)cc2)cc(OC)c1OC` (centres undefined) is 54.4%.

Regarding `CCC(C)n1c(NC(=O)c2ccccc2)c(C#N)c2nc3ccccc3nc21` (centres undefined), the inhibition turned out to be 56.6%.

For the compound `O=c1[nH]c2ccccc2nc1/C=C/c1ccccc1`, the inhibition is 121%. Next, `CCOC(=O)c1sc2c(c1C)C(c1cccs1)C1=C(CCCC1=O)N2` (centres undefined): 134%; `Cc1c(Cc2ccccc2)c(=O)oc2cc(O)cc(O)c12`: 73.8%. The figure for `CCOC(=O)c1c(N2C(=O)C=CC2=O)sc(C)c1C` is 61.3%; for `Cc1ccc(C2C3CN(C(C)C)CC=C3C(C#N)=C(N)C2(C#N)C#N)cc1` (centres undefined) it is 131%. For `NS(=O)(=O)c1ccc(N/N=C/c2ccc(O)c(O)c2O)c([N+](=O)[O-])c1`, the inhibition is 57%. Next, `COc1ccccc1N(CC(=O)N/N=C/c1c(O)ccc2ccccc12)S(C)(=O)=O`: 87.1%; `CCCOc1c(Br)cc(C2C3=C(CCCC3=O)N(C)C3=C2C(=O)CCC3)cc1OC`: 171%.

With `Cc1cc(C)c2c3c(sc2n1)C(c1cccc(F)c1)C(C#N)=C(N)O3` (centres undefined), the inhibition is 72.9%. The figure for `Cc1c(C#N)c(=O)oc2ccc3ccccc3c12` is 60.9%; for `COc1ccccc1C1CN(c2ccccc2)N=C1c1cccs1` (centres undefined) it is 91.4%. Next, `N#Cc1c2ccccc2nc2ccccc12`: 111%; `CCCc1cc(=O)oc2c(CN3CCOCC3)c(O)ccc12`: 86.1%. Next, `Cc1c(CCC(=O)O)c(=O)oc2cc(O)ccc12`: 80.1%; `CCCOc1ccc(C2C(C(=O)OC)=CN(CCOC)C=C2C(=O)OC)cc1`: 151%; `O=S(=O)(Nc1nc2ccccc2nc1N1CCN(c2ccccn2)CC1)c1ccc(Cl)cc1`: 110%.

Regarding `CCn1c(O)c(C=Nc2ccccc2)sc1=S`, the inhibition came out at 74.1%. Next, `Cc1cccn2c(=O)c(/C=C(\C#N)C(=O)NC3CCS(=O)(=O)C3)c(N3CCC(C(N)=O)CC3)nc12` (centres undefined): 127%; `N#C/C(=C\c1ccc(N2CCOCC2)o1)C(=O)NCCc1ccccc1`: 94.6%. The figure for `CC(C)(C)C(=O)Nc1nc2c(s1)CN(Cc1ccccc1)CC2` is 102%. Next, `CC(C)OCCCn1c(-c2ccco2)nc2nc3ccccc3nc21`: 81.6%; `Cc1ccc(S(=O)(=O)N[C@H](C(=O)Oc2ccc3c(C(F)(F)F)cc(=O)oc3c2)c2ccccc2)cc1`: 72.9%; `COc1ccc(-n2c(N)c(C(=O)NCC3CCCO3)c3nc4ccccc4nc32)c(OC)c1` (centres undefined): 122%. For the compound `Cc1ncc(CO)c(/C=N/NC(=O)c2cc(O)c(O)c(O)c2)c1O`, the inhibition was 55.3%. Take `CCC(=O)Oc1ccc2c(C)c(Cl)c(=O)oc2c1`: the inhibition stood at 131%.

Turning to `Cc1ccccc1NC(=S)C1=C(O)c2sccc2N(C)S1(=O)=O`, the inhibition is 58.8%. The figure for `CN1CCc2c(sc(/N=C/c3ccco3)c2C(N)=O)C1` is 106%.
